Values marked as one replicate rest on one cluster of the flow cell; about a third of the high ones do not repeat.
test system: ATP; assay: switch fluorescence ratio, 500 uM ATP over buffer (Cy3 cluster intensity, sum of 5 cycles each) (fold (ratio)); higher = stronger signal-on switching upon ATP binding; sequences stand for … in TCGTCGGCAGCGTCAGATGTGTATAAGAGACAGTTTTTTTTTTTTTTTTTTTTTTTTT…TC; settings: aptamer strand: ATP DNA aptamer (quencher-CACCTGGGGGAGTATTGCGGAGGAAGG + anchor), 100 nM annealed; ATP concentration: 500 uM; one replicate
Procedure, shortened: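 Exposure to 500 uM ATP lasted 15 min at 22 °C before imaging, and a selection-buffer image was taken beforehand, for Cy3-labelled switching-strand clusters on a modified Illumina MiSeq flow-cell annealed to 100 nM quencher-labelled ATP aptamer. Five buffer/ATP cycles were run with NaOH stripping and re-annealing between them. The fluorescence ratio per cluster is summed target-cycle over summed buffer-cycle Cy3 intensity, averaged per switch-domain sequence. Clusters outside 100-1000 RFU were excluded.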

Sequence | switch fluorescence ratio
CCTCTAGGCC | 1.22
CCTCTATAGT | 1.24
CCTGACGCTG | 1.44
CCTGACTAAT | 1.1
CCTGACTCCG | 3.21
CCTGAGGAAA | 0.939
CCTGATAATA | 1.03
CCTGATGTGT | 1.05
CCTGCAGCGG | 1.76
CCTGCATTCT | 1.93
CCTGCCTCTG | 3.08
CCTGCGATCA | 1.75
CCTGCGCTCT | 6.75
CCTGCGTTCC | 1.2
CCTGCTAAAT | 1.23
CCTGCTACAT | 1.09
CCTGGACCCG | 1.14
CCTGGCCGGG | 0.966
CCTGGGATTA | 1
CCTGGGCCGT | 0.961
CCTGGGCTAT | 1.09
CCTGGGCTGG | 1.05
CCTGGTTCCA | 0.981
CCTGTAGGCA | 1.03
CCTGTCTGTC | 1.03
CCTGTGACGC | 1.43

Sequence | switch fluorescence ratio
CCTGTGGGAA | 1.03
CCTGTGGTT | 1.02
CCTGTTGATG | 0.976
CCTTAAAAGA | 1.01
CCTTACTCAT | 1.35
CCTTAGAATG | 1.03
CCTTAGAGG | 0.98
CCTTAGCATG | 2.03
CCTTATGAAA | 1
CCTTATGAAG | 1.04
CCTTATTAAC | 1.04
CCTTCTCTTT | 1.24
CCTTGAAGAA | 0.982
CCTTGCCATT | 1.02
CCTTGGACAC | 1.18
CCTTGGCAGA | 3.08
CCTTGGCCTT | 1.1
CCTTGGCTTA | 1.5
CCTTGGGATA | 1.01
CCTTGGGTGC | 1.59
CCTTGGTGGT | 1
CCTTGTCTGT | 1.01
CCTTTACTTT | 1.03
CCTTTCCGTT | 1.23
CCTTTCTGCT | 1.04
CCTTTGCGGA | 1.94

Sequence | switch fluorescence ratio
CCTTTGGCAT | 1.04
CCTTTGTTGT | 1.04
CCTTTTAATA | 1.07
CCTTTTCTAT | 1.01
CGAAAACAGG | 1.08
CGAAAACTAG | 1.08
CGAAAAGGGC | 1.03
CGAAAAGGTC | 1
CGAAAATCAT | 1.02
CGAAAATGGA | 0.965
CGAAACGTTG | 0.989
CGAAAGTGC | 1.09
CGAAATGCTC | 2.84
CGAAATGGGA | 0.994
CGAACAGTGG | 0.992
CGAACCGCAC | 2.67
CGAACGCTTT | 2.71
CGAAGGTGCT | 1.08
CGAATAACAG | 1.02
CGAATAAGAT | 1.02
CGAATAGTTT | 1.04
CGAATATGT | 0.989
CGAATCAGTT | 1
CGAATCTTGG | 0.975
CGAATTGCTT | 0.997

From the supplement of paper PMC10126150
